# Test results from the supplement of paper PMC8728848.
# This is one part of the list.
# B1: Epa1to9 (Candida glabrata) (protein)
# chain: MGSSHHHHHHSSGLVPRGSHMTSSNDISLASKDPTTFPLGCSPDITTPKKGLSMELYSYDFRKKGSYPCWDAAYLDPNYPRTGYKSHRLLAKVDGVTGNINFYYHATKGCTPQLGHLPASYNYPKPLTMTNFTMLLYGYFRPKVTGFHTFTISADDLLFVNFGAGNAFDCCRRDSSADHFGNYQAYAIWGSKTAKDELTVHLDAGVYYPIRLFYNNRDYHGALSFTFKTESNENTVSDFSEYFFSLDDTEEGCPGLISYD
# Legend:
# Experiment in all cases: glycan array binding signal (z-score within array); higher = stronger binding
# Settings in all cases: glycan notation: IUPAC condensed, linker removed
# [1] = target: Neu5Ac(a2-6)Gal
# In short: (§1)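 Glycan array data came from 3228 arrays in the Consortium for Functional Glycomics database, and only arrays with an available protein sequence were kept. Glycan names were put into IUPAC-condensed notation, and columns mapping to the same glycan were averaged. The binding signal is a within-array Z-score, averaged across arrays of one protein sequence run at different concentrations or buffers and across linkers. A negative Z-score can be read as non-binding.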
# [2] = target: Neu5Ac(a2-6)Gal(b1-3)GlcNAc(b1-3)[Gal(b1-4)GlcNAc(b1-6)]Gal(b1-4)Glc
# In short: as §1
# [3] = target: Neu5Ac(a2-6)Gal(b1-4)Glc
# In short: as §1
# [4] = target: Neu5Ac(a2-6)Gal(b1-4)GlcNAc
# In short: as §1
# [5] = target: Neu5Ac(a2-6)Gal(b1-4)GlcNAc(b1-2)Man
# In short: as §1
# [6] = target: Neu5Ac(a2-6)Gal(b1-4)GlcNAc(b1-2)Man(a1-3)Man(b1-4)GlcNAc(b1-4)GlcNAc
# In short: as §1
# [7] = target: Neu5Ac(a2-6)Gal(b1-4)GlcNAc(b1-2)Man(a1-3)[Gal(b1-4)GlcNAc(b1-2)Man(a1-6)]Man(b1-4)GlcNAc(b1-4)GlcNAc
# In short: as §1
# [8] = target: Neu5Ac(a2-6)Gal(b1-4)GlcNAc(b1-2)Man(a1-3)[GlcNAc(b1-2)Man(a1-6)]Man(b1-4)GlcNAc(b1-4)GlcNAc
# In short: as §1
# [9] = target: Neu5Ac(a2-6)Gal(b1-4)GlcNAc(b1-2)Man(a1-3)[GlcNAc(b1-4)][Neu5Ac(a2-6)Gal(b1-4)GlcNAc(b1-2)Man(a1-6)]Man(b1-4)GlcNAc(b1-4)GlcNAc
# In short: as §1
# [10] = target: Neu5Ac(a2-6)Gal(b1-4)GlcNAc(b1-2)Man(a1-3)[Man(a1-6)]Man(b1-4)GlcNAc(b1-4)GlcNAc
# In short: as §1
# [11] = target: Neu5Ac(a2-6)Gal(b1-4)GlcNAc(b1-2)Man(a1-3)[Neu5Ac(a2-3)Gal(b1-4)GlcNAc(b1-2)Man(a1-6)]Man(b1-4)GlcNAc(b1-4)GlcNAc
# In short: as §1
# [12] = target: Neu5Ac(a2-6)Gal(b1-4)GlcNAc(b1-2)Man(a1-3)[Neu5Ac(a2-6)Gal(b1-4)GlcNAc(b1-2)Man(a1-6)]Man(b1-4)GlcNAc(b1-4)GlcNAc
# In short: as §1
# [13] = target: Neu5Ac(a2-6)Gal(b1-4)GlcNAc(b1-2)Man(a1-3)[Neu5Ac(a2-6)Gal(b1-4)GlcNAc(b1-2)Man(a1-6)]Man(b1-4)GlcNAc(b1-4)[Fuc(a1-6)]GlcNAc
# In short: as §1
# [14] = target: Neu5Ac(a2-6)Gal(b1-4)GlcNAc(b1-2)Man(a1-6)Man(b1-4)GlcNAc(b1-4)GlcNAc
# In short: as §1
# [15] = target: Neu5Ac(a2-6)Gal(b1-4)GlcNAc(b1-2)Man(a1-6)[Gal(b1-4)GlcNAc(b1-2)Man(a1-3)]Man(b1-4)GlcNAc(b1-4)GlcNAc
# In short: as §1
# [16] = target: Neu5Ac(a2-6)Gal(b1-4)GlcNAc(b1-2)Man(a1-6)[GlcNAc(b1-2)Man(a1-3)]Man(b1-4)GlcNAc(b1-4)GlcNAc
# In short: as §1
# [17] = target: Neu5Ac(a2-6)Gal(b1-4)GlcNAc(b1-2)Man(a1-6)[Man(a1-3)]Man(b1-4)GlcNAc(b1-4)GlcNAc
# In short: as §1
# [18] = target: Neu5Ac(a2-6)Gal(b1-4)GlcNAc(b1-2)[Neu5Ac(a2-6)Gal(b1-4)GlcNAc(b1-4)]Man(a1-3)[GlcNAc(b1-4)][Neu5Ac(a2-6)Gal(b1-4)GlcNAc(b1-2)[Neu5Ac(a2-6)Gal(b1-4)GlcNAc(b1-6)]Man(a1-6)]Man(b1-4)GlcNAc(b1-4)GlcNAc
# In short: as §1
# [19] = target: Neu5Ac(a2-6)Gal(b1-4)GlcNAc(b1-2)[Neu5Ac(a2-6)Gal(b1-4)GlcNAc(b1-4)]Man(a1-3)[GlcNAc(b1-4)][Neu5Ac(a2-6)Gal(b1-4)GlcNAc(b1-4)Man(a1-6)]Man(b1-4)GlcNAc(b1-4)GlcNAc
# In short: as §1
# [20] = target: Neu5Ac(a2-6)Gal(b1-4)GlcNAc(b1-2)[Neu5Ac(a2-6)Gal(b1-4)GlcNAc(b1-6)]Man(a1-6)[Neu5Ac(a2-6)Gal(b1-4)GlcNAc(b1-2)Man(a1-3)][GlcNAc(b1-4)]Man(b1-4)GlcNAc(b1-4)GlcNAc
# In short: as §1
# [21] = target: Neu5Ac(a2-6)Gal(b1-4)GlcNAc(b1-3)Gal(b1-3)GlcNAc
# In short: as §1
# [22] = target: Neu5Ac(a2-6)Gal(b1-4)GlcNAc(b1-3)Gal(b1-4)GlcNAc
# In short: as §1
# [23] = target: Neu5Ac(a2-6)Gal(b1-4)GlcNAc(b1-3)Gal(b1-4)GlcNAc(b1-2)Man(a1-3)[Neu5Ac(a2-6)Gal(b1-4)GlcNAc(b1-3)Gal(b1-4)GlcNAc(b1-2)Man(a1-6)]GalNAc
# In short: as §1
# [24] = target: Neu5Ac(a2-6)Gal(b1-4)GlcNAc(b1-3)Gal(b1-4)GlcNAc(b1-3)Gal(b1-4)GlcNAc
# In short: as §1
# [25] = target: Neu5Ac(a2-6)Gal(b1-4)GlcNAc(b1-3)Gal(b1-4)GlcNAc(b1-3)Gal(b1-4)GlcNAc(b1-2)Man(a1-3)[Neu5Ac(a2-6)Gal(b1-4)GlcNAc(b1-3)Gal(b1-4)GlcNAc(b1-3)Gal(b1-4)GlcNAc(b1-2)Man(a1-6)]GalNAc
# In short: as §1
# [26] = target: Neu5Ac(a2-6)Gal(b1-4)GlcNAc(b1-3)Gal(b1-4)GlcNAc(b1-3)GalNAc
# In short: as §1
# [27] = target: Neu5Ac(a2-6)Gal(b1-4)GlcNAc(b1-3)Gal(b1-4)GlcNAc(b1-3)[Neu5Ac(a2-6)Gal(b1-4)GlcNAc(b1-3)Gal(b1-4)GlcNAc(b1-6)]GalNAc
# In short: as §1
# [28] = target: Neu5Ac(a2-6)Gal(b1-4)GlcNAc(b1-3)Gal(b1-4)GlcNAc(b1-6)[Gal(b1-3)]GalNAc
# In short: as §1
# [29] = target: Neu5Ac(a2-6)Gal(b1-4)GlcNAc(b1-3)Gal(b1-4)[Fuc(a1-3)]GlcNAc(b1-3)Gal(b1-4)[Fuc(a1-3)]GlcNAc
# In short: as §1
# [30] = target: Neu5Ac(a2-6)Gal(b1-4)GlcNAc(b1-3)GalNAc
# In short: as §1
# [31] = target: Neu5Ac(a2-6)Gal(b1-4)GlcNAc(b1-3)[Neu5Ac(a2-6)Gal(b1-4)GlcNAc(b1-6)]GalNAc
# In short: as §1
# [32] = target: Neu5Ac(a2-6)Gal(b1-4)GlcNAc(b1-6)GalNAc
# In short: as §1
# [33] = target: Neu5Ac(a2-6)Gal(b1-4)GlcNAc(b1-6)[Gal(b1-3)GlcNAc(b1-3)]Gal(b1-4)Glc
# In short: as §1
# [34] = target: Neu5Ac(a2-6)Gal(b1-4)GlcNAc(b1-6)[Gal(b1-3)]GalNAc
# In short: as §1
# [35] = target: Neu5Ac(a2-6)Gal(b1-4)GlcNAc6S
# In short: as §1
# [36] = target: Neu5Ac(a2-6)GalNAc
# In short: as §1
# [37] = target: Neu5Ac(a2-6)GalNAc(b1-4)GlcNAc
# In short: as §1
# [38] = target: Neu5Ac(a2-6)GalNAc(b1-4)GlcNAc6S
# In short: as §1
binder,measurement,setting,value
B1,glycan array binding signal (z-score),[1],-0.254
same,glycan array binding signal (z-score),[2],0.001
same,glycan array binding signal (z-score),[3],-0.309
same,glycan array binding signal (z-score),[4],-0.273
same,glycan array binding signal (z-score),[5],-0.348
same,glycan array binding signal (z-score),[6],-0.345
same,glycan array binding signal (z-score),[7],-0.246
same,glycan array binding signal (z-score),[8],-0.32
same,glycan array binding signal (z-score),[9],-0.334
same,glycan array binding signal (z-score),[10],-0.321
same,glycan array binding signal (z-score),[11],-0.328
same,glycan array binding signal (z-score),[12],-0.257
same,glycan array binding signal (z-score),[13],-0.335
same,glycan array binding signal (z-score),[14],-0.319
same,glycan array binding signal (z-score),[15],-0.145
same,glycan array binding signal (z-score),[16],-0.34
same,glycan array binding signal (z-score),[17],-0.342
same,glycan array binding signal (z-score),[18],-0.296
same,glycan array binding signal (z-score),[19],-0.321
same,glycan array binding signal (z-score),[20],-0.317
same,glycan array binding signal (z-score),[21],-0.295
same,glycan array binding signal (z-score),[22],-0.313
same,glycan array binding signal (z-score),[23],-0.268
same,glycan array binding signal (z-score),[24],-0.466
same,glycan array binding signal (z-score),[25],-0.309
same,glycan array binding signal (z-score),[26],-0.325
same,glycan array binding signal (z-score),[27],-0.317
same,glycan array binding signal (z-score),[28],0.291
same,glycan array binding signal (z-score),[29],-0.298
same,glycan array binding signal (z-score),[30],-0.289
same,glycan array binding signal (z-score),[31],-0.283
same,glycan array binding signal (z-score),[32],-0.336
same,glycan array binding signal (z-score),[33],-0.192
same,glycan array binding signal (z-score),[34],0.341
same,glycan array binding signal (z-score),[35],-0.328
same,glycan array binding signal (z-score),[36],-0.343
same,glycan array binding signal (z-score),[37],-0.356
same,glycan array binding signal (z-score),[38],-0.352
